Results taken from the supplement of paper PMC6089552.
The campaign covered roughly 3,200 compounds. About 300 (9.4%) showed activity. This is a selection; strong and weak results do not stand in their true shares.

Test system: A673/TR/shEF
Experiment: cell viability (LOESS-normalised, relative to median of negative controls) (log2 ratio); higher = more viable cells (less compound effect), active = hit call of the paper (over 3 MAD below the median)
Settings: treatment time: 72 h
Method in brief: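 Viability of A673/TR/shEF Ewing sarcoma cells was determined by CellTiter-Glo luminescence. The cells, at 1,500 per well in 384-well plates, were grown with or without doxycycline from 24 h before compound addition to switch on EWS-FLI1 shRNA knockdown, then exposed for three days to library compounds at two or more concentrations or to DMSO controls. Signals were LOESS-corrected plate by plate, normalised to the negative-control median and log2-transformed.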

[1] = 0.25 µM, library screen: screen1, EWS-FLI1 expression: high (no doxycycline)
[2] = 0.25 µM, library screen: screen1, EWS-FLI1 expression: low (doxycycline-induced shRNA knockdown)
[3] = 0.25 µM, library screen: screen2, EWS-FLI1 expression: high (no doxycycline)
[4] = 0.25 µM, library screen: screen2, EWS-FLI1 expression: low (doxycycline-induced shRNA knockdown)
[5] = 2.5 µM, library screen: screen1, EWS-FLI1 expression: high (no doxycycline)
[6] = 2.5 µM, library screen: screen1, EWS-FLI1 expression: low (doxycycline-induced shRNA knockdown)
[7] = 2.5 µM, library screen: screen2, EWS-FLI1 expression: high (no doxycycline)
[8] = 2.5 µM, library screen: screen2, EWS-FLI1 expression: low (doxycycline-induced shRNA knockdown)
[9] = 0.103 µM, library screen: screen3, EWS-FLI1 expression: high (no doxycycline)
[10] = 0.103 µM, library screen: screen3, EWS-FLI1 expression: low (doxycycline-induced shRNA knockdown)
[11] = 0.308 µM, library screen: screen3, EWS-FLI1 expression: high (no doxycycline)
[12] = 0.308 µM, library screen: screen3, EWS-FLI1 expression: low (doxycycline-induced shRNA knockdown)
[13] = 0.926 µM, library screen: screen3, EWS-FLI1 expression: high (no doxycycline)
[14] = 0.926 µM, library screen: screen3, EWS-FLI1 expression: low (doxycycline-induced shRNA knockdown)
[15] = 2.8 µM, library screen: screen3, EWS-FLI1 expression: high (no doxycycline)
[16] = 2.8 µM, library screen: screen3, EWS-FLI1 expression: low (doxycycline-induced shRNA knockdown)
[17] = 8.3 µM, library screen: screen3, EWS-FLI1 expression: high (no doxycycline)
[18] = 8.3 µM, library screen: screen3, EWS-FLI1 expression: low (doxycycline-induced shRNA knockdown)
[19] = 25 µM, library screen: screen3, EWS-FLI1 expression: high (no doxycycline)
[20] = 25 µM, library screen: screen3, EWS-FLI1 expression: low (doxycycline-induced shRNA knockdown)

Measured: cell viability (log2)

CC(C)[N+](C)(CCOC(=O)C1c2ccccc2Oc2ccccc21)C(C)C
inactive: [1] 0.116 | [2] 0.12 | [3] 0.123 | [4] 0.000468 | [5] 0.226 | [6] 0.173 | [7] 0.233 | [8] 0.0645

CN[C@@H]1[C@H](O[C@H]2[C@H](O[C@H]3[C@H](O)[C@@H](O)[C@H](N=C(N)N)[C@@H](O)[C@@H]3N=C(N)N)O[C@@H](C)[C@]2(O)CO)O[C@@H](CO)[C@H](O)[C@H]1O
inactive: [1] 0.0822 | [2] 0.116 | [5] 0.138 | [6] 0.136

Cc1onc(-c2ccccc2Cl)c1C(=O)N[C@@H]1C(=O)N2[C@@H]1SC(C)(C)[C@@H]2C(=O)O
inactive: [9] 0.109 | [10] 0.0531 | [1] 0.106 | [2] 0.0499 | [11] 0.113 | [12] 0.0899 | [13] 0.0631 | [14] 0.0718 | [5] 0.219 | [6] 0.201 | [15] -0.00707 | [16] 0.089 | [17] 0.0622 | [18] 0.105 | [19] 0.0853 | [20] 0.0801

C#Cc1cccc(Nc2ncnc3cc(OCCOC)c(OCCOC)cc23)c1
inactive: [9] 0.107 | [10] 0.0915 | [11] 0.189 | [12] 0.0523 | [13] 0.0696 | [14] 0.0933 | [15] 0.0439 | [16] 0.0596 | [17] 0.105 | [18] 0.0233 | [19] -0.0778 | [20] -0.0451

Cn1c(=O)c2[nH]c(-c3ccccc3)nc2n(C)c1=O
inactive: [3] 0.122 | [4] 0.0406 | [7] 0.0445 | [8] 0.0254

NS(=O)(=O)c1cc2c(cc1Cl)NC=NS2(=O)=O
inactive: [9] 0.138 | [10] 0.0545 | [1] 0.00612 | [2] 0.0491 | [3] 0.156 | [4] 0.0723 | [11] 0.112 | [12] 0.103 | [13] 0.0845 | [14] 0.0899 | [5] 0.136 | [6] 0.208 | [7] 0.111 | [8] 0.078 | [15] 0.171 | [16] 0.125 | [17] 0.0654 | [18] 0.0798 | [19] 0.0494 | [20] 0.139

CC(=O)O[C@@H]1CC2C(C)(C)CCC(=O)[C@]2(C)C2CC[C@@]3(C)[C@H](c4ccoc4)OC(=O)C4OC43[C@@]21C (stereo partly specified)
inactive: [1] 0.0305 | [2] 0.0828 | [5] 0.127 | [6] 0.0866

CN1CCN(C2Cc3ccccc3Sc3ccc(Cl)cc32)CC1 (stereo unspecified)
inactive: [3] 0.121 | [4] 0.0659 | [7] 0.0476 | [8] 0.0359

NS(=O)(=O)c1cc2c(cc1Cl)NC(C(Cl)Cl)NS2(=O)=O (stereo unspecified)
inactive: [1] 0.0496 | [2] 0.145 | [5] 0.174 | [6] 0.206
